# Test results: PubChem BioAssay AID662 (National Center for Advancing Translational Sciences (NCATS), 2007)
# About 1,800 (2.5%) of roughly 71,000 compounds were called active. Inconclusive results, whose numbers are uncertain, are shown with a selection of clear calls. The call rests on the fitted dose curve; in most records, active means well fitted activation curve with a large enough effect in the signal ratio, with a control signal flat (not every such curve was filed as active); inconclusive means small, poorly fitted or top-dose-only effect, or effect the other way, or a change in a side signal; inactive means flat fitted curve, though single readings scatter; the % refers to the signal ratio. Where the call is inconclusive, the potency comes from a doubtful curve fit.
# Assay: Cell signaling CRE-BLA (Fsk stim); on activity change, negative = inhibition: % of control where 0% means no effect
# Conditions: CHO CRE-bla reporter (cAMP response element driving beta-lactamase), forskolin EC10, beta-lactamase ratio; activity change, negative = inhibition: at 38.2 µM (top of the series) unless noted
# In short: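 The 460nm/530nm emission ratio after CCF4 loading defined %Activity, from which AC50 values were obtained. CRE-bla CHO cells received compound dilution series together with an EC10 level of NKH 477 for 3 hours at 37 degrees Celsius.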
# Potency means the concentration at half of the fitted maximal effect; tags describe the fitted curve by direction and shape.
SMILES,"activity change, negative = inhibition",Potency
CC(C)C(C(=O)C=[N+]=[N-])N1C(=O)c2ccccc2C1=O (configuration not stated),inconclusive: -4.35%,
CCN(CC)C(=O)CSc1nc2ccccc2c(=O)n1-c1cccc(OC)c1,inconclusive: 26.9%,
O=C(CCC1(C(=O)O)CCC(=O)NC1)NCc1ccccc1 (configuration not stated),inconclusive: 0.549%,
CCc1nnc(NC(=O)CCN2C(=O)CCC2=O)s1,inconclusive: 10.3% [at 7.6 µM],
CN(C)c1ncc2nc(-c3ccccc3)c(=O)n(C3CC3)c2n1,,"inconclusive: 3.16 µM [rising, partial curve]"
Cc1ccc(S(=O)(=O)N(C)Cc2nc(-c3ccccn3)no2)cc1,inconclusive: -28.2%,
O=C(CC(=O)N1CCN(c2ccccn2)CC1)Nc1ccc2nc3n(c(=O)c2c1)CCCCC3,,active: 7.94 µM
COC(=O)C1(C(=O)OC)Sc2ccccc2C1=O,inactive: -8.71%,
O=C(CSc1nnc2scc(-c3ccccc3)n12)NCC1CCCO1 (configuration not stated),inactive: 6.1%,
N#Cc1c(N)c(C(=O)c2ccccc2)n2c1CCC2,inactive: 5.42%,
COc1ccc(NCc2nnc(SCC(=O)Nc3cc(C)cc(C)c3)o2)cc1,inactive: -5.79%,
COc1cc2cc(Oc3ccc4ccc(=O)oc4c3)c(=O)oc2cc1O,,active: 25.1 µM
CCOC(=O)Cn1c(CN2CCN(c3cccc(Cl)c3)CC2)nc2c1c(=O)[nH]c(=O)n2C,inconclusive: 7.8% [fluorescent],
Cc1nn(C)c(C)c1S(=O)(=O)NCc1cccs1,inconclusive: 2.57%,
O=C(CSCc1cnn(-c2ccccc2)c1-n1cccc1)NCCN1CCOCC1,inactive: -3.97%,
COc1ccccc1CNC(=O)c1oc2ccc(S(=O)(=O)N3CCCC3)cc2c1C,,"inconclusive: 10 µM [rising, partial curve]"
COc1cc2c(cc1O)CCC1C2CC[C@@]2(C)C1CC[C@@H]2O (some centres not stated),,"inconclusive: 25.1 µM [rising, partial curve, poor fit]"
C=CCNS(=O)(=O)c1ncnc2nc[nH]c12,inconclusive: -14.9% [at 7.6 µM],
O=C(c1ccccc1)c1ccc2nc[nH]c2c1,inconclusive: -29.9%,
O=C(O)C1C2C=CC(C2)C1C(=O)N1CCOCC1 (configuration not stated),inconclusive: 0.699%,
CC1=C/C(=C/N(C)c2ccccc2)C(=O)S1,inactive: -16.1%,
Cc1ccc(C2C(C#N)=C(N)Oc3nc(-c4ccccc4)[nH]c32)o1 (configuration not stated),inconclusive: 6.06%,

SMILES,"activity change, negative = inhibition",Potency
O=c1c(-c2cccc(F)c2)nc2cncnc2n1C1CC1,inactive: 17.7%,
Nc1c(C(=O)CCC(=O)O)oc2ccc(Cl)cc12,inactive: 7.49%,
c1ccc(N2CCN(c3ccccc3)C2c2cccs2)cc1,inconclusive: -1.29%,
COc1cc(OC)cc(-c2nc3cc(C)ccc3o2)c1,inactive: 2.51%,
CC(C)CC(C(=O)Nc1oc(-c2ccco2)c(-c2ccco2)c1C#N)N1C(=O)c2ccccc2C1=O (configuration not stated),inactive: -7.73%,
CCn1cc(C(=O)N2CCCC2)c(=O)c2cc(S(=O)(=O)N3CCOCC3)ccc21,inconclusive: 1.71%,
COc1ccccc1-c1nc(-c2ccc(C)nc2OC)no1,,"inconclusive: 25.1 µM [rising, single point]"
CC(C)[C@H]1C(=O)C(C(N)=O)=C(O)[C@]2(O)C(=O)C3=C(O)c4c(O)ccc(N(C)C)c4C[C@H]3C[C@@H]12,inactive: 6.61%,
CC(N)=NCCCC[C@H](N)C(=O)O,inconclusive: -17.6%,
CCn1nnc(-c2ccccc2NC(=O)c2cc(OC)cc(OC)c2)n1,,"inconclusive: 1.26 µM [rising, partial curve]"
c1cncc(CNc2nc(-c3ccoc3)nc3ccccc23)c1,inconclusive: 12.8%,
CS(=O)(=O)Nc1cccc(-c2nc(Nc3ccncc3)c3ccccc3n2)c1,,active: 6.31 µM
CN(C)C(=O)c1ccc(-c2nc(-n3ccnc3)c3ccccc3n2)cc1,,"inconclusive: 12.6 µM [rising, single point]"
Cc1sc2nc3c4ccccc4c(NCc4ccco4)nn3c(=O)c2c1C,inconclusive: -8.91%,
Cn1cc(-c2nc3cnc(N4CCNCC4)nc3n(-c3ccccc3)c2=O)c2ccccc21,,"inconclusive: 6.31 µM [rising, partial curve]"
O=C1c2ccccc2C(=O)N1C1(C(=O)NC2(C(=O)O)CCCC2)CCCC1,inactive: 6.48% [at 7.6 µM],
Cc1nc2c(-c3ccccc3)c(C)nn2c(C)c1CCC(=O)NCc1ccco1,inactive: 8.21%,
CC(CO)(CO)N=Cc1cc(I)cc(I)c1O,inactive: 1.18% [at 7.6 µM],
O=[N+]([O-])c1ccc2c(c1)Cc1cc(N=Cc3ccc4c(c3)OCO4)ccc1-2,inactive: -21.6% [at 7.6 µM],
COCCCNc1nc2ccccc2nc1NS(=O)(=O)c1cccs1,,"inconclusive: 10 µM [rising, single point]"
N#CCc1nc(CSc2nc3ccccc3s2)cs1,inactive: 0.373%,
CN(C)CCCN1c2ccccc2Sc2ccccc21,inconclusive: -10.2%,

SMILES,"activity change, negative = inhibition",Potency
CCCCN(CCCNC(=O)C1CCN(S(=O)(=O)CC)CC1)c1ccccc1,,"inconclusive: 0.0501 µM [falling, full curve]"
Cn1c(=O)c2c(nc(SCc3cccnc3)n2Cc2ccccc2)n(C)c1=O,,"inconclusive: 12.6 µM [rising, single point]"
COc1cccc(NS(=O)(=O)c2ccc(OC)c(OC)c2)c1,,"inconclusive: 0.398 µM [rising, partial curve]"
CN1C(=S)SC(/[N+]([O-])=C\c2ccco2)C1(C)C (configuration not stated),,"inconclusive: 2.51 µM [rising, partial curve]"
Cc1ccc(C(=O)N2CCCC(c3nc4c(nnn4Cc4ccccc4)c(=O)[nH]3)C2)cc1 (configuration not stated),,"inconclusive: 12.6 µM [rising, single point]"
COc1ccc2[nH]c(=O)c(CN(CCO)S(=O)(=O)c3ccc4c(c3)OCCO4)cc2c1,inactive: 7.65%,
CCC(=O)Nc1cccc(-c2nc3ccccc3o2)c1,inactive: 9.21%,
O=C(OCc1ccccc1)c1ccc(Br)o1,,"inconclusive: 0.02 µM [rising, full curve, poor fit]"
Cc1ccccc1NC(=O)N1C2CCCC1CC(NC(=O)C1CC1)C2 (configuration not stated),inactive: 1.15%,
CCOC(=O)c1c(NC(=O)C(F)(OC)C(F)(F)F)sc2c1CCN(C)C2 (configuration not stated),,active: 10 µM
CC1(C)CC(NC(=O)C23CCC(C)(C(=O)C2)C3(C)C)CC(C)(C)N1 (configuration not stated),inactive: -1.46%,
O=C(CN1CCOCC1)Nc1ccc(C2CCCCC2)cc1,inactive: 11%,
O=C(c1ccco1)N1CCN(C(=O)c2snc3ccc(Cl)cc23)CC1,inconclusive: -7.47%,
COCCNC(=O)c1ccc(N2CCCCC2)c(NS(=O)(=O)c2ccc(C)cc2)c1,,"inconclusive: 10 µM [rising, partial curve]"
O=C(NCS(=O)(=O)c1ccccc1)c1ccccc1,inactive: 1.96%,
Cc1cccc(-n2ncc3c(NCc4cccs4)ncnc32)c1,,"inconclusive: 25.1 µM [rising, single point]"
CCOC(=O)C1=C(C)NC(=O)NC1c1ccc(OC(=O)c2ccco2)c(OC)c1 (configuration not stated),inconclusive: 20.2% [at 7.6 µM],
CCOc1cccc(Oc2ccc(C(F)(F)F)cn2)c1,inconclusive: 6.43%,
COc1ccc(-n2c(=O)c(C)nc3cnc(Oc4ccccc4)nc32)cc1,,active: 2.51 µM
CN1CCN(c2ncnc3ccc(-c4ccoc4)cc23)CC1,inactive: -0.374%,
CSc1nc(-c2ccccc2)nc2[nH]ccc(=O)c12,,"inconclusive: 5.01 µM [rising, partial curve, poor fit]"
Cc1cnc(NC(=O)COc2ccccc2Cl)s1,inactive: -15.4%,

SMILES,"activity change, negative = inhibition",Potency
O=C1CC(c2ccccc2)C(C(=O)O)N1 (configuration not stated),inactive: 2.01%,
O=C(O)CCc1ccc(-c2ccc(Br)cc2)n1Cc1ccco1,inactive: -25.4%,
COC(=O)c1ccc2ccn(CC(=O)NC(C)C)c2c1,inconclusive: 6.4%,
COc1ccc(S(=O)(=O)CCC(=O)NC2CCCCC2)cc1,inconclusive: -17.2%,
Cc1cc(C(=O)Nc2c(C)nn(Cc3c(Cl)cccc3Cl)c2C)no1,inconclusive: 15.8%,
O=[n+]1cc(-c2ccccc2)n([O-])c2c1CCC2,inactive: 10.7%,
CC(=O)Nc1c2c3c(cccc3n(C)c1=O)C(=O)c1ccccc1-2,inactive: -1.35%,
CC(=O)N(c1ccccc1)C1SC(=O)N(c2ccccc2)C1=O (configuration not stated),inconclusive: 15.6% [at 7.6 µM],
COc1ccc(CCNc2ncnc3c2oc2ccccc23)cc1OC,inconclusive: -21.6%,
CCOC(=O)C1CCN(CC(=O)Nc2c(C(=O)OC)[nH]c3ccccc23)CC1,,"inconclusive: 12.6 µM [rising, single point]"
CCOC(=O)c1cc(-c2cc3ccccc3o2)nc2c1c(=O)[nH]c(=O)n2CCOC,inactive: 0.637%,
Cc1nc2cnc(N3CCNCC3)nc2n(C2CC2)c1=O,,active: 12.6 µM
Cc1ccc2cc(CN(Cc3ccco3)C(=O)c3cccs3)c(=O)[nH]c2c1,inconclusive: -7.08%,
CCOc1ccc(-c2nc(C#N)c(N3CCOCC3)o2)cc1,inactive: 6.69%,
O=C(Nc1ccc(-c2nc3ccccc3o2)cc1)C1CCCO1 (configuration not stated),inactive: 7.23%,
CCOC(=O)c1cc(NC(=O)c2c(C)noc2C)cc(C(=O)OCC)c1,,"inconclusive: 25.1 µM [rising, single point]"
COc1ccc(-c2nnn(CC(=O)c3c[nH]c4ccccc34)n2)cc1OC,,"inconclusive: 12.6 µM [rising, partial curve]"
CC(=O)CCc1ccc(OCCCCn2cncn2)cc1,inactive: 2.38%,
COc1ccc(N2CCN(Cc3nc4c(c(=O)n(C)c(=O)n4C)n3Cc3cccc(C)c3)CC2)cc1,inconclusive: 6.1%,
CCCn1c(-c2cccs2)nc2ccccc21,inconclusive: -1.48%,
CN1CCN(c2ncc3nc(-c4ccc(Cl)cc4)c(=O)n(-c4ccccc4)c3n2)CC1,,"inconclusive: 0.631 µM [rising, full curve]"
